Results published in patent US10894817B2, “Fatty acid modified urocortin-2 analogs for the treatment of diabetes and chronic kidney disease” (priority 2016, dated 2021).
At least one compound was matched to its structure with a doubt left. Marks after values point to notes of the source that are not given here. Some of these results come from one statement about several compounds together. Starred links: 1 amine or outer side, 2 acyl side, 3 side chain; linkers in the order of their positions; H or OH if unused. Non-standard residues stand in square brackets, D forms with d. Residues, ends and D or L forms follow the SMILES beside them. Groups on a side chain read outwards from the residue. *: point of attachment. C20 diacid = O=C(O)CCCCCCCCCCCCCCCCCCC(=O)*; γGlu = O=C(O)[C@H](CCC(=O)[*:2])N[*:1]; NMeI = CC[C@H](C)[C@H](NC)C(=O)O; AEEA = NCCOCCOCC(=O)O

Legend:
DIO mice = assay: In vivo Diet Induced Obesity (DIO) model, chronic dose administration; design: species or system C57BL6 mice; details: for Fat mass change (g ± SEM) / Lean mass change (g ± SEM): day 1 to day 15; for Blood glucose AUC during ipGTT / Serum insulin AUC during ipGTT: ipGTT day 16
human CRHR2b = biological target: T1, human CRHR2b (Homo sapiens, UniProt Q13324); assay: human CRHR2b cell-based cAMP assay; details: statement in words
T1 construct: expressed in transfected cells; host or cells: Chinese Hamster Ovary (CHO) cells, transient transfection
T1 sequence (Q13324 1-438 isoform Q13324-2): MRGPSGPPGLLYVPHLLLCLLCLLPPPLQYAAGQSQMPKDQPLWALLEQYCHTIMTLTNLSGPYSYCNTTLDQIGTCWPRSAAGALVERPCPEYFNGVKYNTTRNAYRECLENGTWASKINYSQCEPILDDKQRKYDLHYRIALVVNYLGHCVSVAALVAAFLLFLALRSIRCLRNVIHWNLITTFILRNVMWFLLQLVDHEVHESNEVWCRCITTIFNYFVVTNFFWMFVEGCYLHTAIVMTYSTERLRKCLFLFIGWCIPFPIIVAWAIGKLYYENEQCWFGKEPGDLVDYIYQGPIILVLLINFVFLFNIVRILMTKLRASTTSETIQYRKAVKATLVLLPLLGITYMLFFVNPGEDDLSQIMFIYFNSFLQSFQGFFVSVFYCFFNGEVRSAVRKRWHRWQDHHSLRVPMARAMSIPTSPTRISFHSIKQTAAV
How it was run: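 ED50 values are means ± SEM over several runs, curve-fitted from cAMP in pmol, calibrated against unlabeled-cAMP standards. Detection was HTRF competition, ratio 665/620 nm, after 30 min agonist exposure at 37 °C.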

[1] = male DIO mice, 2.4 nmol/kg s.c. days 1,4,7,10,13
[2] = male DIO mice, 7.2 nmol/kg s.c. days 1,4,7,10,13
[3] = male DIO mice, 24 nmol/kg s.c. days 1,4,7,10,13
[4] = male DIO mice, 72 nmol/kg s.c. days 1,4,7,10,13
[5] = male DIO mice, 144 nmol/kg s.c. days 1,4,7,10,13
[6] = male DIO mice, s.c. days 1,4,7,10,13, 2.4-144 nmol/kg
[7] = s.c. every third day for 15 consecutive days, statement in words

With `CC[C@H](C)[C@H](NC)C(=O)N[C@H](C(=O)N[C@@H](CC(C)C)C(=O)N[C@@H](CO)C(=O)N[C@@H](CC(C)C)C(=O)N[C@@H](CC(=O)O)C(=O)N[C@H](C(=O)N1CCC[C@H]1C(=O)N[C@H](C(=O)NCC(=O)N[C@@H](CC(C)C)C(=O)N[C@@H](CC(C)C)C(=O)N[C@@H](CCC(N)=O)C(=O)N[C@H](C(=O)N[C@@H](CC(C)C)C(=O)N[C@@H](CC(C)C)C(=O)N[C@@H](CCC(=O)O)C(=O)N[C@@H](CCC(N)=O)C(=O)N[C@@H](CCC(=O)O)C(=O)N[C@@H](CCCCN)C(=O)N[C@@H](CCC(N)=O)C(=O)N[C@@H](CCC(=O)O)C(=O)N[C@@H](CCCCN)C(=O)N[C@@H](CCC(=O)O)C(=O)N[C@@H](CCCCN)C(=O)N[C@@H](CCC(N)=O)C(=O)N[C@@H](CCC(N)=O)C(=O)N[C@@H](C)C(=O)N[C@@H](CCCCNC(=O)COCCOCCNC(=O)COCCOCCNC(=O)CC[C@H](NC(=O)CC[C@H](NC(=O)CCCCCCCCCCCCCCCCCCC(=O)O)C(=O)O)C(=O)O)C(=O)N[C@H](C(=O)N[C@@H](CC(N)=O)C(=O)N[C@@H](C)C(=O)N[C@@H](CCC(=O)O)C(=O)N[C@H](C(=O)N[C@@H](CC(C)C)C(=O)N[C@@H](C)C(=O)N[C@@H](CCC(N)=O)C(=O)N[C@H](C(N)=O)C(C)C)[C@@H](C)CC)[C@@H](C)O)[C@@H](C)CC)[C@@H](C)CC)C(C)C)C(C)C` [Example 6] (H-[NMeI]VLSLDVPIGLLQILLEQEKQEKEKQQAK([AEEA-AEEA-γGlu-γGlu-C20 diacid])TNAEILAQV-NH2) the “ED50 for fasting serum insulin lowering” value (DIO mice; male DIO mice) was 16.97 nmol/kg, the “Body weight change (% change ± SEM)” value (DIO mice; [1]) was 2.3 ± 1.4% and the “Fasting blood glucose (mg/dL ± SEM)” value (DIO mice; [1]) was 99 ± 3.1 mg/dL. The “Fasting serum insulin (ng/mL ± SEM)” value (DIO mice; [1]) was 1.1 ± 0.22 ng/mL, the “Fat mass change (g ± SEM)” value (DIO mice; [1]) was 0.34 ± 0.48 g and the “Lean mass change (g ± SEM)” value (DIO mice; [1]) was 0.75 ± 0.25 g. For the same compound, the “Blood glucose AUC during ipGTT” value (DIO mice; [1]) was 32775 ± 2674 mg/dL × min^−1, the “Serum insulin AUC during ipGTT” value (DIO mice; [1]) was 306 ± 44 ng/mL × min^−1 and the “Body weight change (% change ± SEM)” value (DIO mice; [2]) was 1 ± 1.9%. The “Fasting blood glucose (mg/dL ± SEM)” value (DIO mice; [2]) was 91 ± 4.3 mg/dL, the “Fasting serum insulin (ng/mL ± SEM)” value (DIO mice; [2]) was 1.1 ± 0.34 ng/mL and the “Fat mass change (g ± SEM)” value (DIO mice; [2]) was −0.79 ± 0.4.9 g. The “Lean mass change (g ± SEM)” value (DIO mice; [2]) was 1.1 ± 0.49 g, the “Blood glucose AUC during ipGTT” value (DIO mice; [2]) was 24439 ± 2165 mg/dL × min^−1 and the “Serum insulin AUC during ipGTT” value (DIO mice; [2]) was 230 ± 28 ng/mL × min^−1. For the same compound, the “Body weight change (% change ± SEM)” value (DIO mice; [3]) was −3.5 ± 0.77 %, the “Fasting blood glucose (mg/dL ± SEM)” value (DIO mice; [3]) was 95 ± 2.9 mg/dL and the “Fasting serum insulin (ng/mL ± SEM)” value (DIO mice; [3]) was 0.6 ± 0.14 ng/mL. For the same compound, the “Fat mass change (g ± SEM)” value (DIO mice; [3]) was -2.8 ± 0.62 g, the “Lean mass change (g ± SEM)” value (DIO mice; [3]) was 0.87 ± 0.16 g and the “Blood glucose AUC during ipGTT” value (DIO mice; [3]) was 29473 ± 3180 mg/dL × min^−1. For the same compound, the “Serum insulin AUC during ipGTT” value (DIO mice; [3]) was 173 ± 22 ng/mL × min^−1, the “Body weight change (% change ± SEM)” value (DIO mice; [4]) was −9.9 ± 2.3 % and the “Fasting blood glucose (mg/dL ± SEM)” value (DIO mice; [4]) was 86 ± 4.2 mg/dL. The “Fasting serum insulin (ng/mL ± SEM)” value (DIO mice; [4]) was 0.53 ± 0.21 ng/mL, the “Fat mass change (g ± SEM)” value (DIO mice; [4]) was -5.6 ± 0.96 g and the “Lean mass change (g ± SEM)” value (DIO mice; [4]) was 0.91 ± 0.17 g. The “Blood glucose AUC during ipGTT” value (DIO mice; [4]) was 29719 ± 3115 mg/dL × min^−1, the “Serum insulin AUC during ipGTT” value (DIO mice; [4]) was 115 ± 11 ng/mL × min^−1 and the “Body weight change (% change ± SEM)” value (DIO mice; [5]) was −16 ± 0.88 %. For the same compound, the “Fasting blood glucose (mg/dL ± SEM)” value (DIO mice; [5]) was 86 ± 4.5 mg/dL, the “Fasting serum insulin (ng/mL ± SEM)” value (DIO mice; [5]) was 0.34 ± 0.16 ng/mL and the “Fat mass change (g ± SEM)” value (DIO mice; [5]) was -8 ± 0.43 g. The “Lean mass change (g ± SEM)” value (DIO mice; [5]) was 0.53 ± 0.24 g, the “Blood glucose AUC during ipGTT” value (DIO mice; [5]) was 24650 ± 1532 mg/dL × min^−1 and the “Serum insulin AUC during ipGTT” value (DIO mice; [5]) was 89 ± 17 ng/mL × min^−1. The “ED50, Blood glucose AUC during ipGTT” value (DIO mice; [6]) was “Ambiguous”, the “ED50, Body weight change” value (DIO mice; [6]) was 33.56# nmol/kg and the “ED50, Fasting serum insulin” value (DIO mice; [6]) was 16.97 nmol/kg. For the same compound, the “ED50, Fat mass change” value (DIO mice; [6]) was 22.33 nmol/kg, the “ED50, Lean mass change” value (DIO mice; [6]) was “Ambiguous” and the “ED50, Serum insulin AUC during ipGTT” value (DIO mice; [6]) was 15.49 nmol/kg. The “fasting serum glucose and serum insulin” value (DIO mice; [7]) was “reduction of fasting serum glucose and serum insulin”, the “glucose tolerance (glucose and insulin AUC during IPGTT)” value (DIO mice; [7]) was “improvements in: glucose tolerance” and the “total body weight and body composition vs Vehicle DIO mice” value (DIO mice; s.c. once every three days for 15 consecutive days, statement in words) was “decreases in: total body weight and improved body composition”. For the same compound, the “CRHR2 agonist activity in a cAMP assay” value (human CRHR2b) was “have CRHR2 agonist activity”.
